Hit rate of the full screen: of about 310,000 compounds, about 14,000 (4.5%) showed an effect of 50% or more. Effects have a minus sign here. This is one part of the list.
biological target: human ether-à-go-go-related gene (hERG) potassium channel (human, UniProt Q12809); test: primary screen, population patch clamp on CHO cells stably expressing hERG
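Note: peak tail current of the secondary pulse compared with the same well before compound.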

Sequence of human ether-à-go-go-related gene (hERG) potassium channel (Q12809 whole entry, looked up): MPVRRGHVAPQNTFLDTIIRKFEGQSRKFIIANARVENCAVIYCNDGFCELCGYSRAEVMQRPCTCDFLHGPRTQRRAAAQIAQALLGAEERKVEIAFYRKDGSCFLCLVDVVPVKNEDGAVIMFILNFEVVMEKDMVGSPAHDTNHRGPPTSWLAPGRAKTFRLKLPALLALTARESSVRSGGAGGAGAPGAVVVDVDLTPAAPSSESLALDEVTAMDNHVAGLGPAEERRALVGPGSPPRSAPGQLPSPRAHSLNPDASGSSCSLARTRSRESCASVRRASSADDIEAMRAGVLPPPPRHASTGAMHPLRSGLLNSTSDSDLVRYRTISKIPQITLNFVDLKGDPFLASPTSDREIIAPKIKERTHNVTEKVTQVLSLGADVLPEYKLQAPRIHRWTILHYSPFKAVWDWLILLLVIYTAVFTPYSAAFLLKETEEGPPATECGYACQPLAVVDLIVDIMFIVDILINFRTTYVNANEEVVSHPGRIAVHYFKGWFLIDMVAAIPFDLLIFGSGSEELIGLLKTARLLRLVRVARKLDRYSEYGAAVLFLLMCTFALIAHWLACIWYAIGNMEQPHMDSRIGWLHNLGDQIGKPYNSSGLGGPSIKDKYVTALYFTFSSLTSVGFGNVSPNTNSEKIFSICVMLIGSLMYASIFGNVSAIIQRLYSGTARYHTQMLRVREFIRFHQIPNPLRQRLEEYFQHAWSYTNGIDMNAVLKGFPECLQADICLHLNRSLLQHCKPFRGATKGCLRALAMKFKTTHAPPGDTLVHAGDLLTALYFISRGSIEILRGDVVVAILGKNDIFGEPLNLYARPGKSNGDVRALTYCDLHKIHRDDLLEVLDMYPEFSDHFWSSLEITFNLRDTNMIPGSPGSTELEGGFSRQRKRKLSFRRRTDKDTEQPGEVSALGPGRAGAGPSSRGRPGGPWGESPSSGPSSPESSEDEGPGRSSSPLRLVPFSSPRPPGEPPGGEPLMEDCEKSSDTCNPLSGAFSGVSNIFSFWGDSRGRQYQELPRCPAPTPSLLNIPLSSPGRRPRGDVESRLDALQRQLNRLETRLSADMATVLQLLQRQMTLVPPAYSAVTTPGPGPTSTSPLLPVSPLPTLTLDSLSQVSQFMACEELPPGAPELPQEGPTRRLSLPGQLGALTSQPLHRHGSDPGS

| Structure (SMILES) | hERG current change (%, negative = inhibition) at 10uM [%] |
| --- | --- |
| CCOc1ccccc1NC(=O)NCc1ccccc1 | 0.101 |
| CCOC(=O)c1c(C)[nH]c(C(=O)CN2CCN(CC)CC2)c1C.O=C(O)C(=O)O | 8.52 |
| CC1(/[N+]([O-])=C/c2ccc(F)cc2)CCCCC1=O (stereo not drawn) | 6.1 |
| Cc1ccc(NC(=O)C(NC2CCCc3ccccc32)c2ccccc2)cc1Cl.O=C(O)C(=O)O (stereo not drawn) | -3.44 |
| Cc1ccc(OP(=O)(O)Oc2ccc(C)cc2)cc1 | 2.09 |
| COc1ccc(CN2C[C@H](C)[C@@H](CC(=O)NCc3ccccc3)C2=O)cc1 | -10.7 |
| Nc1nonc1-n1nnc(C(=O)N/N=C/c2ccc(Cl)cc2)c1-c1ccc2c(c1)OCO2 | 28.7 |
| S=C(c1ccc(Br)cc1)N1CCN(Cc2ccccc2)CC1 | -36.3 |
| Cc1ccc(C)c(-n2c(-c3ccncc3)n[nH]c2=S)c1 | 16.9 |
| COc1ccc(NS(=O)(=O)c2ccc3oc(Nc4ccc5c(c4)OCCO5)nc3c2)cc1 | -12.7 |
| Cc1ccc2nc(-c3ccc(NC(=O)C(C)Sc4nncs4)cc3)sc2c1 (stereo not drawn) | 9.19 |
| NS(=O)(=O)c1ccc(NC(=O)c2cc(Cl)ccc2Cl)cc1 | 14.4 |
| CCCCn1nc(NC(=O)CC)c2cc3cc(OC)ccc3nc21 | -11.2 |
| COC(C[C@@H](O)C[C@@H](O)[C@H](C)OCc1ccccc1)OC | 12.2 |
| Cn1c2ccccc2c2cc(/C=N/NC(=O)c3ccccc3F)ccc21 | 19.7 |
| COc1ccc(-c2cc(=O)[nH]c3ccccc23)cc1 | 5.09 |
| CCc1nnc(N2C(=O)c3cccc4cccc(c34)C2=O)s1 | 4.47 |
| CC(NC(=O)CCCCCNC(=O)N1CCn2c1nc1ccccc12)c1ccccc1 (stereo not drawn) | -26.3 |
| Cc1cc(OCC(=O)NC(Cc2c[nH]c3ccc(O)cc23)C(=O)O)c2c(C)c(C)c(=O)oc2c1 (stereo not drawn) | 16.9 |
| O=C(CC1SC(=O)N(c2ccccc2)C1=O)Nc1ccccc1 (stereo not drawn) | 14.4 |
| CCn1c2ccccc2c2cc(/C=N/NC(=O)c3cc(O)cc(O)c3)ccc21 | 6.41 |
| O=c1oc2ccccc2c(Nc2cccc(O)c2)c1[N+](=O)[O-] | -2.92 |
| CCCCNC(=O)/C(C#N)=C/c1ccc2c(c1)OCCO2 | 14.3 |

| Structure (SMILES) | hERG current change (%, negative = inhibition) at 10uM [%] |
| --- | --- |
| CCOc1ccc(NS(=O)(=O)c2c(C)nc3sc(CC)nn3c2=O)cc1 | -14.5 |
| Cc1cc(=O)n2cccc(O)c2n1.Cl | 21.3 |
| COc1cccc(CN(Cc2ccco2)C(c2ccc(F)cc2)c2nnnn2C(C)(C)C)c1 (stereo not drawn) | 1.81 |
| CC(NC(=O)C1CCC(CNS(=O)(=O)c2ccc3c(c2)C(C)(C)C(=O)N3C)CC1)c1ccccc1 (stereo not drawn) | -5.18 |
| CC(=O)O.O=S(=O)(Cc1ccccc1)N1CCNCC1 | 14 |
| O=C(N/N=C/c1ccc(-c2ccccc2[N+](=O)[O-])o1)c1cccnc1 | -33 |
| CNC(=S)N(CCc1ccc(S(N)(=O)=O)cc1)C1CC(=O)N(c2ccccc2F)C1=O (stereo not drawn) | -1.12 |
| O=C(/C=C/c1ccc(S(=O)(=O)N2CCOCC2)cc1)NCc1ccccc1Cl | 4.53 |
| Nc1c(C(=O)NCCN2CCOCC2)c2nc3ccccc3nc2n1-c1ccccc1 | -52 |
| O=C(NNC(=O)c1cc2cc(Br)ccc2oc1=O)c1ccc(O)cc1 | 2.69 |
| CC(C)(C)OC(=O)N/N=C/c1ccc(N2CCOCC2)s1 | 3.77 |
| CS(=O)(=O)N(CC(=O)Nc1ccc(F)cc1F)c1cccc([N+](=O)[O-])c1 | -28.7 |
| CN(C)CCCC(=O)c1ccc2c(c1)OCO2.Cl | 4.44 |
| Cc1ccc(S(=O)(=O)N(CC(=O)Nc2ccccc2C(=O)O)c2ccccc2C)cc1 | 15 |
| Cc1ccc(-c2nc3ccccc3c(=O)n2NC(=O)COc2ccccc2)cc1 | 7.37 |
| O=C(CN1CCCCCC1)Nc1ccc(F)c(F)c1.O=C(O)C(=O)O | -22.4 |
| Cc1[nH]nc2c1C(c1ccc(-c3ccc(Cl)cc3)o1)C(C#N)=C(N)O2 (stereo not drawn) | -1.84 |
| COc1cc(OC)cc(C(=O)NNC(=O)c2ccc(S(=O)(=O)N(C)c3ccccc3OC)cc2)c1 | 3.39 |
| Cc1ccccc1NC(=O)c1onc2c1CCCC2 | 0.172 |
| O=C(NCc1ccccc1CN1CCCC1)c1cccc(N2CCCC2=O)c1 | -3.11 |
| C(=N\N=C\c1ccncc1)/c1ccncc1 | 0.858 |
| CCCC1CC(CCc2ccccc2)OS(=O)(=O)N1 (stereo not drawn) | -11.2 |
